Data: the supplement of paper PMC10338343
± gives the standard deviation. The entries are a selection whose mix differs from that of the whole data set.

system: MIWI (PIWIL1) piRISC loaded with L1MC piRNA (30 nt); assay: pre-steady-state target cleavage rate (min^-1); MIWI and MILI are mouse PIWI proteins and EfPiwi is from a freshwater sponge; tags in brackets are library labels; higher = faster piRNA-guided slicing of the target; settings: guide: L1MC piRNA 5'p-UAACUAAAUACUAUGCAAGCUGUAGGUCCU; auxiliary factor: 500 nM mouse GTSF1
Method in brief: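 Cleave-'n-Seq used a transcribed, DNA-blocked target RNA library at 0.1 nM and active affinity-purified piRISC with one synthetic guide at 1 nM, with or without 500 nM GTSF1 partner protein, in HEPES–potassium acetate buffer at 33 °C for 0–8 or 0–960 min. Uncleaved targets were sequenced and normalised to depth and to weakly complementary targets, and three trials were pooled with k3 capped at 0.0001 min^-1. The pre-steady-state cleavage rate was estimated by a burst-and-steady-state fit.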

Sequence | pre-steady-state target cleavage rate
UCCACCUACUCGUUGCAUAGUAUUUACAAA | 0.135 ± 0.023
UCCUGGAUGUCCAUGCAUAGUAUUUACUUA | 0.0104 ± 0.0048
UCCUGGAUGUGCUUGCAUAGUAUUAAGAAA | 0.00482 ± 0.0036
UCCUGGAUCAGCUUGCAUAGUAUAAACAAA | 0.0518 ± 0.015
UCCUGGAUGUGGUUGGAUAGUAUUUAGUUA | 0.023 ± 0.0089
UCCUGGAUGUCGAUCAUAGUAUUUAGUUA | 0.00647 ± 0.0034
UGGACCUACAGCUUGCAUAGAUAUUAGUAA | 0.00525 ± 0.004
UCCUGGAUGUGCUUGCAUUGAAUUUAGUUA | 0.0036 ± 0.0033
UCCACCUACAGCUUGCAUUCUAUUUAGUAA | 0.0863 ± 0.019
UCCUGGAUGUCGUUGCAUAGUAUUAUAGUUA | 0.00606 ± 0.0038
AGGACCUACAGCUUGCAUAGUAUUAUCAAA | 0.391 ± 0.053
UCCUGGAUGUCCUUGCAUAGUAUUUUCUUA | 0.0231 ± 0.0072
